Measurements from PubChem BioAssay (NCATS).
The inconclusive results got no clear call from the source; some entries with a clear call stand among them for comparison. No potency is given beside an inconclusive call; the fits are too rough. Some structures have more than one record in an assay (separate samples or runs), and their calls can disagree. Active and inactive are the calls of the source. Calls follow the shape of the dose curve; as a rule, active = well fitted inhibition curve with a large enough effect; inconclusive = small, poorly fitted or top-dose-only effect; inactive = flat fitted curve, though single readings scatter. Numbered stars: 1 amine (or outer) side, 2 acyl side, 3 side chain; on linkers, the order of the positions; unused ones are H or OH. Bridge positions count the residues as written; N and C are the ends. Square brackets hold non-standard residues; d marks the D form. Peptide text beside a SMILES is read from it. * marks the point of attachment. pTerphenylCO(4''-OnC5H11) = CCCCCOc1ccc(-c2ccc(-c3ccc(C(=O)*)cc3)cc2)cc1; Orn(4R-OH,5R-OH) = O=C([C@H](C[C@@H](O)[C@@H](O)N[*:3])N[*:1])[*:2]; hTyr(3S-OH,4S-OH) = N[C@H](C(=O)O)[C@H](O)[C@@H](O)c1ccc(O)cc1; Pro(3S-OH,4S-Me) = C[C@H]1CN[C@H](C(=O)O)[C@H]1O; Hyp = O=C(O)[C@@H]1C[C@@H](O)CN1
Potency is read from the fitted curve at half-maximal effect; tags tell the direction and shape of the fitted curve.

Each compound was assayed against Glutathione peroxidase 1 (Homo sapiens) (UniProt P07203) (assay: Primary qHTS Assay for Inhibitors of Recombinant Selenoprotein Glutathione Peroxidase 1 (GPX1) (AID 1845191; also: nearly all actives have a fitted effect of over 65% in size)). Settings: recombinant GPX1, GR-coupled NADPH fluorescence, 15 min; activity, negative = inhibition: at 48.8 µM (top of the series); series mostly up to 48.8 µM.
Chain of UniProt P07203 (P07203 whole entry, looked up): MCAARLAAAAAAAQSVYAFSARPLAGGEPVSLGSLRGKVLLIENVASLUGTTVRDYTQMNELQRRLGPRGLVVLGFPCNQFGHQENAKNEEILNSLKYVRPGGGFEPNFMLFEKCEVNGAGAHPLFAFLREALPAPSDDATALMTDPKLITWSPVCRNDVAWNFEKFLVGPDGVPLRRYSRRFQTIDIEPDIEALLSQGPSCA
From the text: Assay Provider: Elias S.J. Arner MD PhD.
Department of Medical Biochemistry and Biophysics
Karolinska Institutet, Solna, Stockholm, Sweden
Selenoprotein glutathione peroxidases (GPX), like the ubiquitously expressed GPX1 and the ferroptosis modulator GPX4, enact their antioxidant activities by reducing hydroperoxides using glutathione. […] GPX1 and GPX4 inhibitors have thus shown promise as anti-cancer agents. Existing inhibitors are often promiscuous, or modulate GPX activity only indirectly, so novel direct inhibitors identified through screening against GPX1 and GPX4 could be valuable. Here, we developed optimized glutathione reductase (GR)-coupled GPX assays for the biochemical high-throughput screen (HTS) of almost 12,000 compounds with known mechanisms of action. Initial hits were triaged using a GR counter-screen, assessed for isoform specificity using a separate GPX2 assay, and were assessed for general selenocysteine-targeting activity using a thioredoxin reductase (TXNRD1) assay. With this suite of assays, we identified novel GPX1/GPX2- and GPX4-specific inhibitors and can here present a validated pipeline for future discovery research for selenoprotein-targeting agents.
SEQUENCE No. (e.g., 1, 2, 3, etc.); […] (e.g., Cells, Incubation, Reagent, etc.); VALUE; DESCRIPTION.
1; Reagent 1; 3 uL; GPx1 enzyme or no enzyme control in 1536-well, black, solid Greiner assay plate.
2; Compound; 25 nL; Kalypsis pin tool (Wako USA) equipped with a 1536-well pin head.
3; Incubation; 30 min; room temperature.
4; Reagent 2; 1 uL; 10 nM GPX1, 1 mM GSH, 0.5 mM CHP, 0.5 mM NADPH, 100 nM GR, 0.01% BSA substrate
5; Detection; Fluorescence; ViewLux microplate reader, excitation 340 nm and emission 450 nm.
6; Incubation; 15 min; room temperature.
7; Detection; Fluorescence; ViewLux microplate reader, excitation 340 nm and emission 450 nm.
NOTES (numbers refer to Sequence numbers above)
1. 3 uL of 16.66 nM GPX1 and 0.016% BSA in assay buffer (50 mM Tris-HCl, 2 mM EDTA (pH 7.5), 150 mM NaCl) was added to columns 3-48 of 1536-well assay plates using a BioRAPTR Flying Reagent Dispenser (Let's Go Robotics (LGR), Carlsbad, CA). A no-enzyme control (0.01% BSA in TES assay buffer) was added to columns 1-2.
2. 25 nL of test compounds and DMSO controls were added to each well with a pin tool (Kalypsys).
3. The assay plates were incubated for 30 minutes at room temperature.
4. 1 uL of master mix (500 nM glutathione reductase (GR), 5 mM reduced glutathione (GSH), 2.5 mM NADPH in assay buffer) was added. 1 uL of cumene hydroperoxide (CHP) ([2.5 mM] in 50% EtOH) was then added within 5 minutes to initiate the reaction. Final concentrations were: 10 nM GPX1, 1 mM GSH, 0.5 mM CHP, 0.5 mM NADPH, 100 nM GR, 0.01% BSA.
5. Initial fluorescence readout (t=0) at 340/450 nm was measured using a ViewLux multimodal detector (PerkinElmer, Waltham, MA).
7. Endpoint fluorescence readout (t=15) at 340/450 nm was measured 15 min after room temperature incubation.
For c1ccc(-c2csc(N3CCOCC3)n2)cc1, the “activity, negative = inhibition” value was inactive: 1.18%.
In the case of Cc1csc(N(C(=O)CSc2ccc(-c3ccccc3)nn2)C2CC2)n1, the Potency was active: 20.2 µM.
COc1cc2occc2c(O[C@@H]2O[C@H](CO)[C@@H](O)[C@H](O)[C@H]2O)c1CCC(=O)O was tested, and the Potency was active: 11.1 µM.
For O=c1cc(OCc2ccc(F)cc2)ccn1-c1ccc(OCCN2CCCC2)cc1, the Potency was inconclusive [inhibitor, partial curve, poor fit].
In the case of NCCNC(=O)c1ccc(Cl)cn1, the Potency was inconclusive [inhibitor, full curve].
With Cc1ccc(-c2ccc3ncc4c(c3n2)n(C2CCN(C(=O)[C@H](C)O)CC2)c(=O)n4C)cn1 the Potency was active: 22.7 µM.
Cc1cc(N2CCOCC2)cc2[nH]c(-c3c(NC[C@@H](O)c4cccc(Cl)c4)cc[nH]c3=O)nc12 was tested, and the Potency was inconclusive [inhibitor, single point].
With CO/N=C(/C(=O)N[C@@H]1C(=O)N2C(C(=O)O)=C(Cn3nnc(C)n3)CS[C@H]12)c1csc(N)n1 the Potency was active: 14.3 µM.
With CCCCCOc1ccc(-c2ccc(-c3ccc(C(=O)N[C@H]4C[C@@H](O)[C@@H](O)NC(=O)[C@@H]5[C@@H](O)[C@@H](C)CN5C(=O)[C@H]([C@@H](C)O)NC(=O)[C@H]([C@H](O)[C@@H](O)c5ccc(O)cc5)NC(=O)[C@@H]5C[C@@H](O)CN5C(=O)[C@H]([C@@H](C)O)NC4=O)cc3)cc2)cc1 ({pTerphenylCO(4''-OnC5H11)}-[Orn(4R-OH,5R-OH)]T[Hyp][hTyr(3S-OH,4S-OH)]T[Pro(3S-OH,4S-Me)]; lactam 1-C) the Potency was inconclusive [inhibitor, single point].
With N#CC1C(=O)Nc2scc(-c3ccc(-c4ccccc4O)cc3)c2C1=O (stereo not given) the Potency was inconclusive [inhibitor, single point].
In the case of CCCCS(=O)(=O)N[C@@H](Cc1ccc(OCCCCC2CCNCC2)cc1)C(=O)O, the Potency was “inactive”.
CCOC(=O)COc1ccc2c(=O)cc(-c3ccccc3)oc2c1 was tested, and the Potency was inconclusive [inhibitor, full curve, poor fit].
In the case of CN(C)C(=O)Nc1cccc(-c2ccc(N(C)C)cc2)c1, the Potency was inconclusive [inhibitor, single point].
For C[C@@H]1CCC2C(C)(C)[C@H](O)CC[C@]2(C)[C@@]12Cc1c(O)cc3c(c1O2)CN([C@@H](CCC(=O)O)C(=O)O)C3=O (stereo not given in full), the “activity, negative = inhibition” value was inactive: -11.1% [at 27.7 µM].
Nc1c(S(=O)(=O)c2ccccc2)c2nc3ccccc3nc2n1-c1ccc(F)cc1 was tested, and the Potency was active: 20.2 µM.
In the case of Cc1ccc(C)c(-c2cc(C(F)(F)F)nn2-c2ccc(S(N)(=O)=O)cc2)c1, the Potency was inconclusive [inhibitor, partial curve, poor fit].
CC(N)C12CC3CC(CC(C3)C1)C2 (stereo not given) was tested, and the Potency was active: 6.4 µM.
COc1cc(C)c(Sc2cnc(NC(=O)c3ccc(CNC(C)C(C)C)cc3)s2)cc1C(=O)N1CCN(C(C)=O)CC1 (stereo not given) was tested, and the Potency was inconclusive [inhibitor, single point].
COc1ccc2cc3[n+](cc2c1OC)CCc1cc2c(cc1-3)OCO2 was tested, and the Potency was inconclusive [inhibitor, single point].
CCN(CC)C(=O)c1cccc(C)c1 was tested, and the “activity, negative = inhibition” value was inactive: -7.73%.
For CNC(=S)NS(=O)(=O)c1cc(CCNC(=O)c2cc(Cl)ccc2OC)ccc1OC, the Potency was active: 12.8 µM.
For c1ccc(Nc2nc3c(s2)CCCc2[nH]ncc2-3)nc1, the Potency was inconclusive [inhibitor, single point].
COC(=O)C1=COC(O[C@@H]2O[C@H](CO)[C@@H](O)[C@H](O)[C@H]2O)[C@H]2[C@@H]1[C@H](OC(=O)CCc1ccc(O)cc1)C[C@]2(C)O (stereo not given in full) was tested, and the “activity, negative = inhibition” value was inactive: -16.5% [at 27.7 µM].
For CC(C)(C)Nc1nc(Nc2ccc(C(N)=O)cc2)cc(N)c1C#N, the Potency was active: 22.7 µM.
For CCN(CCCc1ccccc1)CCCc1ccccc1, the “activity, negative = inhibition” value was inactive: -9.26%.
For C/C(=C(\CCOC(=O)c1ccccc1)SS/C(CCOC(=O)c1ccccc1)=C(/C)N(C=O)Cc1cnc(C)nc1N)N(C=O)Cc1cnc(C)nc1N, the Potency was inconclusive [inhibitor, partial curve].
With CCCCCCCCCCCCSCCOCCO the “activity, negative = inhibition” value was inactive: -8.5%.
In the case of Cc1ncc(CCCN(C)C)cc1Nc1ncc2c(n1)-c1ccc(C(F)(F)F)cc1NC(=S)C2, the Potency was active: 12.8 µM.
In the case of C[C@@H](Oc1cc(-n2cnc3ccc(OC4CCN(C)CC4)cc32)sc1C(N)=O)c1ccccc1C(F)(F)F, the “activity, negative = inhibition” value was inactive: -9.33%.
With C=C1[C@@H]2CC[C@@H]3[C@@](CCC4C(C(=O)O)(C(=O)O)C[C@@H](O[C@@H]5O[C@H](CO)[C@@H](O)[C@H](O)[C@H]5OC(=O)CC(C)C)C[C@]43C)(C2)[C@H]1O (stereo not given in full) the “activity, negative = inhibition” value was inactive: 2.11% [at 15.3 µM].
In the case of CC1=CC[C@]2(C(=O)O[C@@H]3O[C@H](CO[C@@H]4O[C@H](CO)[C@@H](O[C@@H]5O[C@@H](C)[C@H](O)[C@@H](O)[C@H]5O)[C@H](O)[C@H]4O)[C@@H](O)[C@H](O)[C@H]3O)CC[C@]3(C)C(CCC4[C@@]5(C)C[C@@H](O)[C@H](O)[C@@](C)(CO)C5CC[C@]43C)C2C1C (stereo not given in full), the “outcome” value was “inactive [at 15.3 µM]”.
With Cn1nnc(-c2ccc(-c3ccc(N4C[C@H](COP(=O)(O)O)OC4=O)cc3F)cn2)n1 the Potency was inconclusive [inhibitor, partial curve].
With Cc1ccc(C(=O)N(CCCN)C(c2nc3cc(Cl)ccc3c(=O)n2Cc2ccccc2)C(C)C)cc1 (stereo not given) the Potency was inconclusive [inhibitor, partial curve, poor fit].
CC1C(=O)OCC2=CC[N+]3([O-])CCC(OC(=O)C(C)(O)C1(C)O)C23 (stereo not given) was tested, and the “outcome” value was “inactive [at 27.7 µM]”.
For CCCCCCC(=O)O[C@H]1CC[C@H]2[C@@H]3CCc4cc(O)ccc4[C@H]3CC[C@]12C, the “outcome” value was “inactive”.
With Cc1nc(-c2cn3c(n2)-c2ccc(-c4cnn(C(C)(C)C(N)=O)c4)cc2OCC3)n(C(C)C)n1 the Potency was inconclusive [inhibitor, single point].
With CCS(=O)(=O)c1cccc(-c2cc(C(=O)NC3CCN(C)CC3)c(C)c3[nH]c4ncc(C)cc4c23)c1 the Potency was inconclusive [inhibitor, single point].
CCc1oc2ccccc2c1C(=O)c1cc(Br)c(O)c(Br)c1 was tested, and the activity, negative = inhibition was inconclusive: -45.6% [inhibitor].
Oc1ccc(Cl)cc1Cc1cc(Cl)ccc1O was tested, and the Potency was inconclusive [inhibitor, partial curve, poor fit].
With Cc1c(-c2ccnn2C)cc(C(=O)NCc2ccc(S(C)(=O)=O)cn2)c(=O)n1-c1cccc(C(F)(F)F)c1 the Potency was inconclusive [inhibitor, partial curve, poor fit].
